Test results from the supplement of paper PMC4604168 (melanoma cell lines).
This is one part of the list. Single values are uncertain, as repeats are few or missing.

Experiments:
Assay in all cases: cell count relative to DMSO control; melanoma cells; higher = more viable cells
Settings in all cases: library dose: low library concentration; 72 h
WM115 = tested on: WM115
WM1716 = tested on: WM1716
WM1745 = tested on: WM1745
WM3526 = tested on: WM3526
WM3619 = tested on: WM3619
WM451Lu = tested on: WM451Lu
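Also: cell number obtained by counting DAPI-stained nuclei in high-throughput microscope images with image analysis software, screen run in 1,536-well plates.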

Compound	cell count (WM115)	cell count (WM1716)	cell count (WM1745)	cell count (WM3526)	cell count (WM3619)	cell count (WM451Lu)
Cc1ccc(Nc2nccc(N(C)c3ccc4c(C)n(C)nc4c3)n2)cc1S(N)(=O)=O [Pazopanib] + CCN(CC)CCNC(=O)c1c(C)[nH]c(/C=C2\C(=O)Nc3ccc(F)cc32)c1C [sunitinib] (first compound 0.4 µM, partner dose 0.4 µM)	102%	125%	101%	85.6%	97.2%	95.6%
O=C(/C=C/c1cccnc1)NCCCCC1CCN(C(=O)c2ccccc2)CC1 + C#Cc1cccc(Nc2ncnc3cc(OCCOC)c(OCCOC)cc23)c1 [erlotinib] (first compound 0.01 µM, partner dose 0.8 µM)	94.8%	93%	76.7%	107%	93.7%	104%
Cc1ccc(Nc2nccc(N(C)c3ccc4c(C)n(C)nc4c3)n2)cc1S(N)(=O)=O [Pazopanib] + C[C@@H]1CCN(C(=O)CC#N)C[C@@H]1N(C)c1ncnc2[nH]ccc12 [CP690550] (first compound 0.4 µM, partner dose 1 µM)	87.9%	90.8%	113%	94.7%	101%	81%
CC1(C)CCC(c2ccc(Cl)cc2)=C(CN2CCN(c3ccc(C(=O)NS(=O)(=O)c4ccc(N[C@H](CCN5CCOCC5)CSc5ccccc5)c(S(=O)(=O)C(F)(F)F)c4)cc3)CC2)C1 + NC1(c2ccc(-c3nc4ccn5c(=O)[nH]nc5c4cc3-c3ccccc3)cc2)CCC1 [MK2206] (first compound 0.4 µM, partner dose 0.4 µM)	53.8%	48.8%	3.74%	75.9%	67.4%	82.1%
